# Some of the results follow.
# Assays:
# Assay in all cases: glycan array binding signal (z-score within array); higher = stronger binding
# Settings in all cases: glycan notation: IUPAC condensed, linker removed
# [1] = target: Neu5Ac(a2-3)Gal(b1-3)GlcNAc6S
# Outline: (§1)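 The Consortium for Functional Glycomics database supplied 3228 glycan arrays, of which those lacking an available protein sequence were dropped. The binding signal, a within-array Z-score, was averaged across arrays of the same protein sequence and across linkers. Negative scores can be read as non-binding.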
# [2] = target: Neu5Ac(a2-3)Gal(b1-3)[Fuc(a1-4)]GlcNAc
# Outline: as §1
# [3] = target: Neu5Ac(a2-3)Gal(b1-3)[Fuc(a1-4)]GlcNAc(b1-3)Gal(b1-3)[Fuc(a1-4)]GlcNAc
# Outline: as §1
# [4] = target: Neu5Ac(a2-3)Gal(b1-3)[Fuc(a1-4)]GlcNAc(b1-3)Gal(b1-4)[Fuc(a1-3)]GlcNAc
# Outline: as §1
# [5] = target: Neu5Ac(a2-3)Gal(b1-3)[GlcNAc(b1-6)]GalNAc
# Outline: as §1
# [6] = target: Neu5Ac(a2-3)Gal(b1-3)[Neu5Ac(a2-6)]GalNAc
# Outline: as §1
# [7] = target: Neu5Ac(a2-3)Gal(b1-3)[Neu5Ac(a2-6)]GlcNAc(b1-3)[Fuc(a1-3)[Gal(b1-4)]GlcNAc(b1-6)]Gal(b1-4)Glc
# Outline: as §1
# [8] = target: Neu5Ac(a2-3)Gal(b1-3)]Neu5Ac(a2-3)Gal(b1-4)]GlcNAc
# Outline: as §1
# Neu5Ac(a2-3)Gal(b1-4)Glc = target: Neu5Ac(a2-3)Gal(b1-4)Glc
# Outline: as §1
# [9] = target: Neu5Ac(a2-3)Gal(b1-4)GlcNAc
# Outline: as §1
# [10] = target: Neu5Ac(a2-3)Gal(b1-4)GlcNAc(b1-2)Man
# Outline: as §1
# [11] = target: Neu5Ac(a2-3)Gal(b1-4)GlcNAc(b1-2)Man(a1-3)[GlcNAc(b1-4)][Neu5Ac(a2-3)Gal(b1-4)GlcNAc(b1-2)Man(a1-6)]Man(b1-4)GlcNAc(b1-4)GlcNAc
# Outline: as §1
# [12] = target: Neu5Ac(a2-3)Gal(b1-4)GlcNAc(b1-2)Man(a1-3)[Neu5Ac(a2-3)Gal(b1-4)GlcNAc(b1-2)Man(a1-6)]Man(b1-4)GlcNAc(b1-4)GlcNAc
# Outline: as §1
# [13] = target: Neu5Ac(a2-3)Gal(b1-4)GlcNAc(b1-2)Man(a1-3)[Neu5Ac(a2-3)Gal(b1-4)GlcNAc(b1-2)Man(a1-6)]Man(b1-4)GlcNAc(b1-4)[Fuc(a1-6)]GlcNAc
# Outline: as §1
# [14] = target: Neu5Ac(a2-3)Gal(b1-4)GlcNAc(b1-2)Man(a1-3)[Neu5Ac(a2-6)Gal(b1-4)GlcNAc(b1-2)Man(a1-6)]Man(b1-4)GlcNAc(b1-4)GlcNAc
# Outline: as §1
# [15] = target: Neu5Ac(a2-3)Gal(b1-4)GlcNAc(b1-2)[Neu5Ac(a2-3)Gal(b1-4)GlcNAc(b1-4)]Man(a1-3)[GlcNAc(b1-4)][Neu5Ac(a2-3)Gal(b1-4)GlcNAc(b1-2)[Neu5Ac(a2-3)Gal(b1-4)GlcNAc(b1-6)]Man(a1-6)]Man(b1-4)GlcNAc(b1-4)GlcNAc
# Outline: as §1
# [16] = target: Neu5Ac(a2-3)Gal(b1-4)GlcNAc(b1-2)[Neu5Ac(a2-3)Gal(b1-4)GlcNAc(b1-4)]Man(a1-3)[GlcNAc(b1-4)][Neu5Ac(a2-3)Gal(b1-4)GlcNAc(b1-4)Man(a1-6)]Man(b1-4)GlcNAc(b1-4)GlcNAc
# Outline: as §1
# [17] = target: Neu5Ac(a2-3)Gal(b1-4)GlcNAc(b1-2)[Neu5Ac(a2-3)Gal(b1-4)GlcNAc(b1-6)]Man(a1-6)[Neu5Ac(a2-3)Gal(b1-4)GlcNAc(b1-2)Man(a1-3)]Man(b1-4)GlcNAc(b1-4)GlcNAc
# Outline: as §1
# [18] = target: Neu5Ac(a2-3)Gal(b1-4)GlcNAc(b1-2)[Neu5Ac(a2-3)Gal(b1-4)GlcNAc(b1-6)]Man(a1-6)[Neu5Ac(a2-3)Gal(b1-4)GlcNAc(b1-2)Man(a1-3)][GlcNAc(b1-4)]Man(b1-4)GlcNAc(b1-4)GlcNAc
# Outline: as §1
# [19] = target: Neu5Ac(a2-3)Gal(b1-4)GlcNAc(b1-3)Gal
# Outline: as §1
# [20] = target: Neu5Ac(a2-3)Gal(b1-4)GlcNAc(b1-3)Gal(b1-3)GlcNAc
# Outline: as §1
# [21] = target: Neu5Ac(a2-3)Gal(b1-4)GlcNAc(b1-3)Gal(b1-4)GlcNAc
# Outline: as §1
# [22] = target: Neu5Ac(a2-3)Gal(b1-4)GlcNAc(b1-3)Gal(b1-4)GlcNAc(b1-2)Man(a1-3)[Neu5Ac(a2-3)Gal(b1-4)GlcNAc(b1-3)Gal(b1-4)GlcNAc(b1-2)Man(a1-6)]Man(b1-4)GlcNAc(b1-4)GlcNAc
# Outline: as §1
# [23] = target: Neu5Ac(a2-3)Gal(b1-4)GlcNAc(b1-3)Gal(b1-4)GlcNAc(b1-3)Gal(b1-4)GlcNAc
# Outline: as §1
# [24] = target: Neu5Ac(a2-3)Gal(b1-4)GlcNAc(b1-3)Gal(b1-4)GlcNAc(b1-3)Gal(b1-4)GlcNAc(b1-2)Man(a1-3)[Neu5Ac(a2-3)Gal(b1-4)GlcNAc(b1-3)Gal(b1-4)GlcNAc(b1-3)Gal(b1-4)GlcNAc(b1-2)Man(a1-6)]GalNAc
# Outline: as §1
# [25] = target: Neu5Ac(a2-3)Gal(b1-4)GlcNAc(b1-3)Gal(b1-4)GlcNAc(b1-3)GalNAc
# Outline: as §1
# [26] = target: Neu5Ac(a2-3)Gal(b1-4)GlcNAc(b1-3)Gal(b1-4)GlcNAc(b1-3)[Neu5Ac(a2-3)Gal(b1-4)GlcNAc(b1-3)Gal(b1-4)GlcNAc(b1-6)]GalNAc
# Outline: as §1
# [27] = target: Neu5Ac(a2-3)Gal(b1-4)GlcNAc(b1-3)Gal(b1-4)GlcNAc(b1-6)[Gal(b1-3)]GalNAc
# Outline: as §1
# [28] = target: Neu5Ac(a2-3)Gal(b1-4)GlcNAc(b1-3)Gal(b1-4)[Fuc(a1-3)]GlcNAc
# Outline: as §1
# [29] = target: Neu5Ac(a2-3)Gal(b1-4)GlcNAc(b1-3)GalNAc
# Outline: as §1
binder,measurement,setting,value
"AT5G01260(PC)(40) (Arabidopsis thaliana), Q9LFB0 (protein) MIGIGRTLTSSSPSKIILEDLPPGIYRYGTEIFTSVPRKTFHHIKFLRLDSAQSSRILKPVPLRSSSIKDSQVNVEDEEIEASNKTVRVRFQLRKECVFGEHFFIVGDDPVFGGLWDPETALPLNWSDGNVWTVDLDLPVGRLVEFKLLLKAQTGEILWQPGPNRALETWETNKTIRICEDWDNADLQMMIEEDFVPYTNISSIGSEDEDEVLGSVQQNSSVVAVENAGYVSDESAQNSSFSIQSEKTMEPSNGALTAREVIKEAMFTEEESPVLVPGLIPLSDLDNEQVEVINEGKAETFPEVDKKQEPKAERNKKAKVKAISLFEKSEQEAVKSVEQRQYNAVEEEQQRLETEPLGTPDVLFENDIQWGRRTLYKLLSNFRLF",glycan array binding signal (z-score),[1],0.248
same,glycan array binding signal (z-score),[2],-0.252
same,glycan array binding signal (z-score),[3],-0.068
same,glycan array binding signal (z-score),[4],0.682
same,glycan array binding signal (z-score),[5],-0.322
same,glycan array binding signal (z-score),[6],-0.391
same,glycan array binding signal (z-score),[7],0.026
same,glycan array binding signal (z-score),[8],-0.372
same,glycan array binding signal (z-score),Neu5Ac(a2-3)Gal(b1-4)Glc,0.937
same,glycan array binding signal (z-score),[9],-0.15
same,glycan array binding signal (z-score),[10],0.436
same,glycan array binding signal (z-score),[11],-0.11
same,glycan array binding signal (z-score),[12],-0.324
same,glycan array binding signal (z-score),[13],0.636
same,glycan array binding signal (z-score),[14],-0.166
same,glycan array binding signal (z-score),[15],0.225
same,glycan array binding signal (z-score),[16],0.282
same,glycan array binding signal (z-score),[17],-0.35
same,glycan array binding signal (z-score),[18],-0.434
same,glycan array binding signal (z-score),[19],-0.844
same,glycan array binding signal (z-score),[20],0.186
same,glycan array binding signal (z-score),[21],-0.47
same,glycan array binding signal (z-score),[22],-0.244
same,glycan array binding signal (z-score),[23],-0.063
same,glycan array binding signal (z-score),[24],0.092
same,glycan array binding signal (z-score),[25],-0.564
same,glycan array binding signal (z-score),[26],0.326
same,glycan array binding signal (z-score),[27],-0.3
same,glycan array binding signal (z-score),[28],0.192
same,glycan array binding signal (z-score),[29],-0.282

# Source: the supplement of paper PMC8728848
